Experimental data published in PubChem BioAssay AID1479 (National Center for Advancing Translational Sciences (NCATS), 2009).
Hit rate of the full screen: of about 280,000 compounds, about 820 (0.29%) were called active. This list was built around the results that the source calls inconclusive (neither active nor inactive); the mix of calls is not that of the screen. Calls come from the whole dose curve; as a rule, active = well fitted curve in either direction with a large enough effect; inconclusive = small, poorly fitted or top-dose-only effect; inactive = flat fitted curve, though single readings scatter. No potency is given beside an inconclusive call; the fits are too rough.

experiment: Total Fluorescence Counterscreen for Inhibitors of the Interaction of Thyroid Hormone Receptor and Steroid Receptor Coregulator 2; conditions: TRb/SRC2 Texas Red total fluorescence interference; series mostly up to 106 µM; fluorescence change, negative = quenching: at the top concentration
Method in brief: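 Flags fluorescent or light-absorbing compounds by total fluorescence, S + 2P, at 555 nm excitation and 632 nm emission. Mixture: 20 nM Texas Red SRC2 peptide, 0.6 uM human TRb LBD, 1 uM T3, 5% DMSO; compound exposure 5 h at ambient temperature.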
% is set by controls: 0 for no effect and ±100 for the full control effect; potency is the fitted concentration of half-maximal effect; tags give direction and shape of the fitted curve or compound fluorescence and quenching.

Row | SMILES | Potency | fluorescence change, negative = quenching
1 | CC1=C(C(=O)N2CCN(c3cccc(C(F)(F)F)c3)CC2)C2(CCCCC2)OC1=O | inconclusive [falling, full curve, poor fit] | 
2 | COC(=O)c1c(Oc2ccc(C(C)=O)cc2)nnc(-c2ccccc2)c1-c1ccccc1 | inconclusive [falling, partial curve, poor fit] | 
3 | Cc1c(C#N)c(NC(=O)CCl)n(Cc2ccccc2)c1C |  | inactive: 1.79%
4 | Cc1cc(C)cc(S(=O)(=O)Nc2cccc(-c3ccc(N4CCOCC4)nn3)c2)c1 | inconclusive [falling, full curve, poor fit] | 
5 | O=C1C2C(C(=O)N1/N=C/c1cc([N+](=O)[O-])c(O)cc1O)C1C=CC2C12CC2 (stereo unspecified) |  | inactive: -11%
6 | Cc1ccc(CNS(=O)(=O)c2cc3c(cc2C)NC(=O)CO3)cc1 | inconclusive [quencher, full curve] | 
7 | CCc1cccc(CC)c1NC(=O)CN1C(=O)C(=O)c2ccccc21 | inconclusive | 
8 | Cc1ccc(/C=C/c2nc3ccccc3[nH]2)cc1 |  | inactive: -0.643%
9 | CS(=O)(=O)CCC(C(=O)Nc1cccc(C(F)(F)F)c1)N1Cc2ccccc2C1=O (stereo unspecified) | active: 25.1 µM [quencher] | 
10 | N#C/C(=C\c1coc2ccc(O)cc2c1=O)C(=O)Nc1nc2ccccc2s1 | inconclusive [quencher, full curve] | 
11 | COC(=O)c1ccc(NC(=O)c2cc(=O)c3ccc(C)cc3o2)cc1 | inconclusive [falling, partial curve, poor fit] | 
12 | CC(=O)c1ccc(N/N=C(/C(N)=O)C2=NC(C)(C)Cc3ccccc32)cc1 |  | inactive: -0.96%
13 | O=C1CCCC=C1[C@H](O)c1ccc([N+](=O)[O-])cc1 | inconclusive [falling, full curve, poor fit] | 
14 | COc1ccc2nc(/N=C/c3c(C)[nH]n(-c4ccc(C)cc4C)c3=O)sc2c1 |  | inactive: -9.68%
15 | BrC(Br)C(Br)Br |  | inactive: 0.297%
16 | CCc1ccc(NC(=O)Cn2c(=O)c3cccn3c3ccccc32)cc1 | inconclusive [falling, full curve, poor fit] | 
17 | Cc1cccc(NC(=O)CCn2cnnn2)c1 | inconclusive [quencher, full curve] | 
18 | CCc1ccc(C(c2ccccc2)c2c(C)[nH]c3ccccc23)s1 (stereo unspecified) | inconclusive [falling, partial curve, poor fit] | 
19 | Cc1cccc(CNC(=O)c2ccc3c(c2)N(C)CCS3)c1 | inconclusive [quencher, full curve] | 
20 | C[C@@H]1CNCCN1S(=O)(=O)c1cccc2cnccc12 |  | inactive: -1.25%
21 | O=Cc1c(C(=O)O)n(CC(=O)O)c2ccccc12 | inconclusive [falling, full curve, poor fit] | 
22 | COCCNC(=O)Cn1c(-c2cccs2)cc2cc(Cl)ccc21 | active: 126 µM [quencher] | 

Row | SMILES | Potency | fluorescence change, negative = quenching
23 | Cc1ccccc1C(=O)Nc1cccc(NC(=O)c2ccc(C(C)(C)C)cc2)c1 | active: 0.158 µM [quencher] | 
24 | Cc1cc(Cl)ccc1Oc1ncnc2oc(-c3ccccc3)cc12 | inconclusive [rising, single point] | 
25 | Oc1ccc2ccccc2c1/C=N/c1nccs1 | inconclusive [quencher, full curve] | 
26 | O=[N+]([O-])c1cc(Cl)cc(/C=N/n2cnnc2)c1O |  | inactive: 1.65%
27 | Cc1ccc(-n2cccc2/C=C2/C(=N)N3C(=NC2=O)SN=C3S(C)(=O)=O)cc1Cl | inconclusive [quencher, partial curve] | 
28 | Cc1ccc(NC(=O)Cn2cnc3c(oc4ccccc43)c2=O)cc1Cl | inconclusive [falling, full curve, poor fit] | 
29 | O=C(N/N=C/c1ccc(-c2ccc(S(=O)(=O)Nc3ncccn3)cc2)o1)c1cc2ccccc2cc1O | active: 15.8 µM [quencher] | 
30 | Cc1nn(-c2ccc(N3CCOCC3)nn2)c(C)c1CCC(=O)NCc1ccc(Cl)cc1 | inconclusive [falling, partial curve, poor fit] | 
31 | COC(=O)N1C2=C(c3ccccc3[C@@H]1CC(=O)Nc1ccc3ccc4cccc5ccc1c3c45)[C@@H]1C(=O)N(c3ccccc3)C(=O)[C@@H]1[C@H](C)C2 |  | inactive: -2.51% [at 11.2 µM]
32 | COc1ccccc1NC(=O)/C=C/c1ccc2c(c1)OCO2 |  | inactive: -6.83%
33 | COC(=O)c1ccc(NC(=O)C(C)Sc2nc(=O)cc(N)n2CCc2ccccc2)cc1 (stereo unspecified) | active: 17.8 µM [quencher] | 
34 | CCn1c(C)nc2cc(C(=O)NNC(=S)Nc3ccc(Cl)cc3Cl)ccc21 | active: 8.91 µM [quencher] | 
35 | O=C(NNc1ccccc1[N+](=O)[O-])Nc1ccccc1 |  | inactive: -1.95%
36 | Cc1ccc(Cn2c(CO)cnc2SCc2ccc(F)cc2)cc1 | inconclusive [falling, full curve, poor fit] | 
37 | Cc1cccc(NC(=S)NNC(=O)COc2ccc(Cl)cc2Cl)c1 | inconclusive [falling, full curve, poor fit] | 
38 | N[C@@H](CS(=O)O)C(=O)O | inconclusive [rising, full curve, poor fit] | 
39 | COC(=O)c1ccc(NC(=O)c2cnn(-c3ccc(Cl)cc3)c2C2CCN(C(=O)OC(C)(C)C)CC2)cc1 | inconclusive [falling, full curve, poor fit] | 
40 | CCc1nn(CC(=O)NCCc2ccc(Cl)cc2)c(=O)c2cc3c(OC)cccc3n12 | inconclusive [quencher, full curve] | 
41 | Cc1cc(C)c(NC(=O)c2cc(C)nc3c2c(C)nn3-c2cccc(F)c2)c(C)c1 |  | inactive: 4.4%
42 | Cc1cc2oc(C(=O)N(Cc3ccc(Cl)cc3)Cc3ccco3)c(C)c2cc1Cl | inconclusive [falling, full curve, poor fit] | 
43 | O=C(N/N=C/c1cccc(F)c1)c1cc(-c2ccco2)nc2ccccc12 | active: 31.6 µM [quencher] | 
44 | COc1cc2cc3c(N)c(C(=O)Nc4sc(C)c(C)c4C#N)sc3nc2cc1OC | inconclusive [quencher, partial curve] | 

Row | SMILES | Potency | fluorescence change, negative = quenching
45 | CCc1nn(CC(=O)N2CCN(c3ccc(OC)cc3)CC2)c(=O)c2cc3sccc3n12 | inconclusive [falling, full curve, poor fit] | 
46 | COc1cc(C(=O)NC(CCSC)C(=O)OCC(=O)C(C)(C)C)cc(OC)c1OC (stereo unspecified) |  | inactive: -3.08%
47 | COc1ccc(-c2cnc(C)o2)cc1S(=O)(=O)Nc1ccc(NC(C)=O)cc1 |  | inactive: -1.15%
48 | CC(C)(C)c1ccc(C(=O)NCC(c2cccnc2)N2CCc3ccccc3C2)cc1 (stereo unspecified) | active: 11.2 µM [quencher] | 
49 | CC1=CC(=O)C2=C(C)CC[C@@H]3[C@@H](OC(=O)[C@H]3C)[C@H]12 |  | inactive: -2.42% [at 53 µM]
50 | Cc1cc(C)cc(NC(=O)CSc2nc3c(c(=O)[nH]2)CN(Cc2ccc(F)cc2)CC3)c1 | inconclusive [falling, full curve, poor fit] | 
51 | CCOc1cc(-c2ccc(OC(=O)c3ccccc3Cl)c(OC)c2)cc(=O)c2c(C)oc(C)c12 | inconclusive [falling, partial curve, poor fit] | 
52 | Cc1nc2cc(-c3ccccc3)nn2c(C)c1CCC(=O)Nc1ccc(F)cc1F | inconclusive [falling, full curve, poor fit] | 
53 | COc1ccc(C(=O)COC(=O)CCN2C(=O)[C@@H]3[C@H](C2=O)[C@@H]2C[C@H]3C(Br)C2Br)cc1 (stereo partly specified) | inconclusive [falling, full curve, poor fit] | 
54 | CCNc1ccc(C(=O)O)cc1N | inconclusive [fluorescent, partial curve] | 
55 | CCOC(=O)C1CCCN(C(=O)c2ccc3c(c2)sc2nc(-c4ccc(CC)cc4)cn23)C1 (stereo unspecified) | inconclusive [falling, partial curve, poor fit] | 
56 | NS(=O)(=O)c1ccc(Nc2ccc3nonc3c2[N+](=O)[O-])cc1 |  | inactive: 1.68%
57 | Nc1ccc2c(c1)OC1(CCCC1)O2 |  | inactive: -0.655%
58 | Cc1cc(C)c2oc(-c3ccc(Cl)c(NC(=O)c4cccs4)c3)nc2c1 | inconclusive [quencher, full curve] | 
59 | CCN(CC)c1ccc(C(=C2C=CC(=[N+](CC)Cc3cccc(S(=O)(=O)[O-])c3)C=C2)c2ccc(N(CC)Cc3cccc(S(=O)(=O)O)c3)cc2)cc1 | active: 11.2 µM [fluorescent] | 
60 | COc1ccc(NS(=O)(=O)c2cc3c(cc2C)N(C(C)=O)CCO3)cc1 | inconclusive [quencher, full curve] | 
61 | COc1ccc(-c2nc3ccccc3n3c(-c4ccccc4)c4c(=O)n(C)c(=O)n(C)c4c23)cc1OC | inconclusive [quencher, full curve] | 
62 | O=c1oc2c3c(ccc2c2ccccc12)OCN(Cc1ccc(Cl)cc1)C3 | inconclusive [quencher, partial curve] | 
63 | CC1(C)CC(=O)C(C(=S)Nc2ccc(F)cc2)=C(NCCN2CCOCC2)C1 | inconclusive [falling, full curve, poor fit] | 
64 | Cc1ccc(/C=C/c2onc(C)c2S(=O)(=O)N2CCC(C(=O)Nc3ccc(Br)c(C)c3)CC2)cc1 | inconclusive [quencher, full curve] | 
65 | CCn1c(C)c(C(C)=O)c(N2CCN(c3cccc(Cl)c3)CC2)nc1=S |  | inactive: 0.884%
66 | COC(=O)C/C=C/C(C)C(OCc1cccc(-c2ccccc2)c1)C1CCCCC1 (stereo unspecified) | inconclusive [falling, full curve, poor fit] | 
